# From the supplement of paper PMC11417369
# ± gives the standard deviation of the averaged measurements. The list shows a part of the results.
# Test system: PfAP2-LT AP2 domain (GST-tagged)
# Assay: gcPBM binding intensity (ln(normalized median fluorescence intensity)); higher = stronger DNA binding
# How it was run: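 DNA-binding domains from P. falciparum, fused to GST and produced in E. coli, were put on an Agilent 4 × 180k double-stranded probe array for 1 h in 1× PBS holding 1% milk, 0.2 mg/ml BSA, 0.5% salmon testes DNA and 0.03% Triton X-100. Probes were primer-extended, 36 bp long and drawn from intergenic genomic regions, with negative controls included. After Alexa488 anti-GST antibody detection and a 488 nm scan, binding intensity was set as the highest Masliner-normalised natural-log median intensity across replicate spots of either probe orientation.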
row,Sequence,gcPBM binding intensity (ln)
1,TTAATTTGTTCTTACACACACATATAAATATATTTA [CACACA_site6676],9.03 ± 0.32
2,TATTTTGTTTTAAAAGTACACACTTTTAATTAGATT [CACACA_site1180],8.63 ± 0.51
3,AAAAAAAAAAGAAACACACACATATATATATAGAAT [CACACA_site1777],9.44 ± 0.39
4,CATACCTTTTAATGTACACACATTTCTTTTTTGTTA [CACACA_site892],9.1 ± 0.42
5,TTATATGGATATACAGTGCATATATACATATAAGTG,8.86 ± 0.47
6,AATATATATACTATAACACACATACACCCAAAAAAA [CACACA_site4453],9.43 ± 0.19
7,TATATGTATTTGTATACACACAAATGTATATATTTA [CACACA_site1265],8.84 ± 0.41
8,ATGTATTAAAATTTATGTACTTATATATAAATATAT [XGTACX_site1025],8.6 ± 0.49
9,TATAAACATAATATTTAACACACATGAAGATGTATA [CACACA_site8252],8.74 ± 0.4
10,TATATATTGTTATATACACACATGTATTTAAAAAAT [CACACA_site5737],8.72 ± 0.34
11,ATTATTATATATGTATGTACTTATATAATATATATA [XGTACX_site5198],8.66 ± 0.42
12,TCTGTTAAACAAAAAAGTACTAAAATAATGTAAAAT [XGTACX_site6826],8.71 ± 0.47
13,TTAACAAAACATAAGGTGCTTAAAATTTTATATCAC [GTGCAC_site9839],8.6 ± 0.39
14,TACCTATATAGACACACACACATATATTTATTTATA [CACACA_site6728],9.52 ± 0.33
15,ATATGTACAAGTGTTTATGCTGAACGGAAATCCTGT [CACACA_negctrl_site1372],8.92 ± 0.4
16,TTTTTTTTTATATAAAAAAAAATTTTTATTATTTTA [GTGCAC_negctrl_site347],8.04 ± 0.49
17,TTCTCCTAATAGTTAGTGCACTACATAACTAAGAAA,8.46 ± 0.38
18,ATAATTGTCCATTTTTTCTTTTTTTTTTTCTTTTTA [CACACA_negctrl_site928],8.66 ± 0.54
19,AAAAAAAAAAAAAAAACACACATTTAGCAATCTACA [CACACA_site3706],8.82 ± 0.4
20,ATATGATCATACTGTGCATGTTAATGCAAATTTTAT [TGCATGCA_site984],9.07 ± 0.51
21,TACATATATTATACATGTACACATTTATACATATCG [XGTACX_site2866],9.04 ± 0.34
22,AATACAATTTATAACACACACACAAGAATACCTATA [CACACA_site6705],9.73 ± 0.26
23,TTTGTATCTATATATTGTACGAATTACTTTCATTTA [XGTACX_site4785],8.85 ± 0.47

row,Sequence,gcPBM binding intensity (ln)
1,TCTTTTTAAGGGATTTTTTTTTTTTTTTTAAAAAGA [CACACA_negctrl_site1274],7.88 ± 0.45
2,TATACATACATTAGACGTACACATTTTACCTACACC [XGTACX_site3586],9.09 ± 0.34
3,TATTATGTATGTATATGTACGTATCTTATTTTATTT [XGTACX_site5008],9.06 ± 0.61
4,TTTTTTGTATTTTTCACACACACATAAGTAAACAAT [CACACA_site1900],9.28 ± 0.46
5,AAATATAGAATACATGTGCACATAATATATATATAT,9.26 ± 0.26
6,AAATTATTATATATATGTACGTATAATGTATTTTGT [XGTACX_site2903],8.95 ± 0.38
7,AAATGTAAATTTATCCGTACATATATATATTTATAT [XGTACX_site7024],8.72 ± 0.47
8,AAAAAAAAAAAAATATATATATATATATATATATAT [GTGCAC_negctrl_site212],9.7 ± 0.13
9,AAAAAAAAAAATTAAAGTACAAAAATATTAAAAATA [XGTACX_site6517],8.46 ± 0.61
10,TGCATTTATATCTTCACACATATATATATATATATA [CACACA_site4516],9.515 ± 0.05
11,ATGTAATAAAATAATTGTACAATGTAACTAATTTTT [XGTACX_site2871],8.93 ± 0.45
12,ATTAAAAATTCAATTGCACACGCACATATTTTAATA [CACACA_site8618],9.03 ± 0.4
13,ATATGTATATATACATGTACATATTTTTCCTTTCTT [XGTACX_site149],8.78 ± 0.47
14,ATAAACATGGAAATGTATTAAAAGCAAGTATATAAA [XGTACX_negctrl_site516],8.85 ± 0.57
15,TAAATTATAACGTGCACACATATTTAAAATGAAATG [CACACA_site2820],9.05 ± 0.38
16,TTGGGTGCATATATTTGTACACATTATTTCTATTTT [XGTACX_site3688],8.74 ± 0.5
17,TGTTGTTACAGATATACACACATATATATATTATAT [CACACA_site5342],9.09 ± 0.38
18,AAAAAAAATTTCTTCACACATAAATAAATAAATAAA [CACACA_site4841],8.3 ± 0.47
19,TTTTTTTTTTTTTCAAGTACATATATATATATATAA [XGTACX_site2098],8.38 ± 0.25
20,TTTTTATATGTTAAGTGTACGTTTACATTTTATACT [XGTACX_site3485],8.87 ± 0.45
21,ACATAAATAAATTAATGTACATATATATTTGTATAT [XGTACX_site3160],8.77 ± 0.47
22,TATATATATATATATACACACACACCCATATATATA [CACACA_site8812],9.85 ± 0.18
